For this assay, the system named is Plasmodium falciparum NF54 stage V gametocytes. Nature of the assay: viability index relative to DMSO control (fraction); higher = less gametocyte killing. As to conditions: 2.5 µM, incubation time: 72 h. The method, boiled down:
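Compound at 2.5 µM was incubated for 72 hr at 37°C under low oxygen with P. falciparum NF54 stage V gametocytes (0.75% gametocytemia, 1.25% hematocrit, 10 µl, serum-free screening medium) in 1,536-well plates. Staining used 3 µl of 2.5 µM MitoTracker Red CMXRos plus 0.13% saponin for one to two hours, and red particles of 20–70 µm2 were counted in one imaged field per well. Each viability index is that count relative to the plate mean of solvent-only wells.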

Setting [1] is: library set: Broad Institute DOS.

The structures appear in SMILES notation. ± gives the uncertainty stated by the source. Whole data set: some 9,900 compounds, median “viability index relative to DMSO control” near 1, cut for the lowest 2% near 0.85. The list shows a part of the results.

`CCS(=O)(=O)Nc1ccc2c(c1)C(=O)N(C)C[C@@H](OC)[C@@H](C)CN(C(=O)c1ccc3c(c1)OCO3)[C@H](C)CO2` showed a viability index under setting [1] of 1.13 ± 0.031. `C[C@@H]1C(=O)N[C@H](c2ccc3c(c2)OCO3)C/C=C/C[C@H](C)Oc2ccccc2C(=O)N1C.C[C@@H]1C(=O)N[C@H](c2ccc3c(c2)OCO3)C/C=C\C[C@H](C)Oc2ccccc2C(=O)N1C`: under setting [1], the viability index was found to be 1.05 ± 0.03. On to `CO[C@H](CN(C)Cc1ccc2c(c1)OCO2)[C@@H](C)CN(C(=O)Nc1ccc(F)cc1)[C@@H](C)CO`, for which the viability index under setting [1] worked out at 1.043 ± 0.0038. On the same count and under the same terms, the figure for `O=C(C[C@H]1CC[C@H]2[C@@H](COC[C@@H](O)CN2S(=O)(=O)c2cccc(F)c2)O1)NCc1ccncn1` is 1.01 ± 0.025. Under setting [1], `O=C(Nc1ccccc1F)N1CCCCN2[C@H](CO)[C@@H](c3ccc(/C=C/c4ccccc4)cc3)[C@@H]2C1` returned a viability index of 0.961 ± 0.019. Still for that read-out and setting: the figure for `CN1c2ccc(C3=CCCCC3)cc2[C@@H]2[C@@H](CCN2C(=O)Cc2ccccn2)[C@H]1CO` is 1 ± 0.12. For `COc1ccc(-c2ccc3c(c2)[C@H]2[C@H](CCN2C(=O)c2cccc(F)c2)[C@@H](CO)N3)cc1`, the viability index under setting [1] was 0.942 ± 0.075. The same measure, in the same setting: the figure for `COc1ccccc1S(=O)(=O)N(C)C[C@@H]1OCc2ccccc2-c2ccccc2C(=O)N([C@H](C)CO)C[C@H]1C` is 0.9925 ± 0.0063. Still for that read-out and setting: the figure for `C[C@@H]1CCCCO[C@H](CN(C)Cc2ccc3c(c2)OCO3)[C@@H](C)CN([C@@H](C)CO)C(=O)c2cc(NS(=O)(=O)c3cn(C)cn3)ccc2O1` is 1.09 ± 0.032; for `CC(C)CC#Cc1ccc([C@@H]2[C@@H](CO)N3C(=O)CN(C(=O)Nc4cc(F)ccc4F)C[C@H]23)cc1` it is 1.1 ± 0.048; for `CO[C@H]1CC[C@H]2CCOc3c(C#N)cccc3C(=O)N(C)CC3(CCCCC3)CC(=O)N(C)C[C@H]1O2` it is 1.02 ± 0.035. The same measure, in the same setting: the figure for `CO[C@@H](CN(C)S(=O)(=O)c1ccc(C)cc1)[C@H](C)CN([C@H](C)CO)S(=O)(=O)c1cccc(Cl)c1` is 1.01 ± 0.035. Turning to `C/C=C/c1ccccc1[C@@H]1[C@@H](C#N)N(C(=O)c2cccnc2)[C@@H]1CO`, the viability index under setting [1] is 1.09 ± 0.013. Still for that read-out and setting: the figure for `O=C(C[C@H]1C[C@@H]2c3cc(NS(=O)(=O)c4ccc(F)cc4)ccc3O[C@@H]2[C@H](CO)O1)NCc1cccnc1` is 1.06 ± 0.033; for `C[C@H](CO)N1C[C@H](C)[C@@H](CN(C)S(=O)(=O)c2cn(C)cn2)Oc2ccc(NC(=O)C3CC3)cc2CC1=O` it is 0.865 ± 0.1; for `N#C[C@H]1[C@@H](c2ccc(/C=C/c3ccccc3)cc2)[C@@H](CO)N1C(=O)Cc1ccccn1` it is 1.06 ± 0.1. Same read-out and setting: with `CO[C@@H]1CN(C)C(=O)c2cc(NC(=O)c3cccc(F)c3)ccc2OC[C@H](C)N(C)C[C@@H]1C` the figure was 0.946 ± 0.077; with `CN1CCN(C(=O)[C@@H]2[C@@H](CO)[C@@H]3Cn4c(ccc(-c5ccncc5)c4=O)[C@@H]3N2CC2CC2)CC1`, 1.03 ± 0.043. As to `O=C(Nc1ccccc1F)N1CC(=O)N2[C@H](CO)[C@H](c3ccc(-c4cccnc4)cc3)[C@@H]2C1`, the viability index under setting [1] was 0.977 ± 0.017. The same measure, in the same setting: the figure for `CC(C)NC(=O)N[C@@H]1CC[C@H](CC(=O)NCCCN(C)C)O[C@@H]1CO` is 0.896 ± 0.11; for `O=C(C[C@@H]1C[C@H]2c3cc(NC(=O)C4CCOCC4)ccc3O[C@H]2[C@H](CO)O1)NCCN1CCCCC1` it is 0.998 ± 0.084. With `O=C(c1cccc(F)c1)N1CC2(C1)[C@H](c1ccccc1)[C@@H](CO)N2Cc1ccccn1`, the viability index under setting [1] came to 1.13 ± 0.11. Still for that read-out and setting: the figure for `O=C1CNC[C@@H]2[C@H](c3ccc(-c4ccccc4F)cc3)[C@@H](CO)N12` is 0.998 ± 0.032; for `C/C=C/c1ccc([C@@H]2[C@@H](CO)N3C(=O)CN(Cc4ccc(F)cc4)C[C@H]23)cc1` it is 1.07 ± 0.074; for `CN1CCCCN2[C@H](CO)[C@H](c3ccc(-c4ccc(F)cc4)cc3)[C@@H]2C1` it is 1.08 ± 0.021. Still for that read-out and setting: the figure for `O=C(CC(F)(F)F)N1C[C@@H]2[C@H](c3ccccc31)[C@H](CO)N2CC1CCOCC1` is 0.999 ± 0.076. Under setting [1], `Cc1noc(C)c1S(=O)(=O)Nc1ccc2c(c1)C(=O)N([C@H](C)CO)C[C@@H](C)[C@@H](CN(C)C(=O)Nc1cccc3ccccc13)OCCCC[C@@H](C)O2` gave a viability index of 0.968 ± 0.077. Same read-out and setting: with `O=C([C@H]1[C@H](CO)[C@H]2Cn3c(cccc3=O)[C@H]2N1C(=O)C1CCCCC1)N1CCOCC1` the figure was 1.09 ± 0.026; with `COc1ccc2c3c([C@@H](CO)N(C)C[C@]33CN(C3)C(=O)C3CCC3)n(C)c2c1`, 1.07 ± 0.034; with `COCC(=O)Nc1ccc2c(c1)C(=O)N(C)[C@@H]1CC[C@H](CC(=O)N3CCc4ccccc4C3)O[C@@H]1CO2`, 1.0023 ± 0.00098. `CO[C@H]1CC[C@H]2CCN(C)C(=O)[C@@H](C)N(C)C(=O)c3cccc(C#N)c3OC[C@@H]1O2` yielded a viability index under setting [1] of 1 ± 0.07.

With `CN1C(=O)c2cc(NC(=O)c3ccc4c(c3)OCO4)ccc2OC[C@@H]2O[C@H](CC(=O)O)CC[C@@H]21`, under setting [1], the viability index worked out at 1.17 ± 0.094. Take `C[C@H](CO)N1C[C@H](C)[C@@H](CN(C)C(=O)Nc2ccc3c(c2)OCO3)Oc2ccc(NC(=O)Nc3ccc(C(F)(F)F)cc3)cc2CC1=O`: the viability index (library set: Broad Institute Blood Stage) came to 0.755 ± 0.061. Under setting [1], `C[C@@H]1CN([C@@H](C)CO)C(=O)CCCn2nncc2CO[C@@H]1CN(C)C(=O)Nc1ccc2c(c1)OCCO2` showed a viability index of 1.13 ± 0.017.

`Cc1noc(C)c1NC(=O)N(C)C[C@H]1OCc2ccccc2-c2c(n(C)c3ccccc23)C(=O)N([C@H](C)CO)C[C@@H]1C`: the viability index under setting [1] is 1.04 ± 0.016.

For the origin of these results see the supplement of paper PMC4723716.
